# Measurements from the supplement of paper PMC8728848.
# This is one part of the list.
# B1: RegIIIalpha (Mus musculus), O09037 (protein)
# chain: MLPHLVLNSISWMLLSCLLFVFQVQGEDFQKEVPSPRTSCPMGYKAYRSHCYALVMTPKSWFQADLVCQKRPSGHLVSILSGGEASFVSSLVNGRVDNYQDIWIGLHDPTMGQQPNGGGWEWSNSDVLNYLNWDGDPSSTVNRGHCGSLTASSGFLKWGDYYCDGTLPFVCKFKQ
# How the values were obtained:
# Assay in all cases: glycan array binding signal (z-score within array); higher = stronger binding
# Conditions in all cases: glycan notation: IUPAC condensed, linker removed
# [1] = target: Neu5Ac(a2-3)Gal(b1-3)GlcNAc
# Summary of the method: (§1)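 Columns mapping to the same glycan were averaged after glycan names were converted to IUPAC-condensed notation. The data come from 3228 arrays in the Consortium for Functional Glycomics database, limited to those with an available protein sequence. Binding is reported as a within-array Z-score averaged across arrays of one protein sequence and across linkers.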
# [2] = target: Neu5Ac(a2-3)Gal(b1-3)[Fuc(a1-4)]GlcNAc
# Summary of the method: as §1
# [3] = target: Neu5Ac(a2-3)Gal(b1-3)[Neu5Ac(a2-3)Gal(b1-4)]GlcNAc
# Summary of the method: as §1
# [4] = target: Neu5Ac(a2-3)Gal(b1-3)[Neu5Ac(a2-6)]GalNAc
# Summary of the method: as §1
# Neu5Ac(a2-3)Gal(b1-4)Glc = target: Neu5Ac(a2-3)Gal(b1-4)Glc
# Summary of the method: as §1
# [5] = target: Neu5Ac(a2-3)Gal(b1-4)GlcNAc
# Summary of the method: as §1
# [6] = target: Neu5Ac(a2-3)Gal(b1-4)GlcNAc(b1-3)Gal(b1-4)GlcNAc
# Summary of the method: as §1
# [7] = target: Neu5Ac(a2-3)Gal(b1-4)GlcNAc(b1-3)Gal(b1-4)GlcNAc(b1-3)Gal(b1-4)GlcNAc
# Summary of the method: as §1
# [8] = target: Neu5Ac(a2-3)Gal(b1-4)GlcNAc6S
# Summary of the method: as §1
# [9] = target: Neu5Ac(a2-3)Gal(b1-4)[Fuc(a1-3)]GlcNAc
# Summary of the method: as §1
# [10] = target: Neu5Ac(a2-3)Gal(b1-4)[Fuc(a1-3)]GlcNAc(b1-3)Gal
# Summary of the method: as §1
# [11] = target: Neu5Ac(a2-3)Gal(b1-4)[Fuc(a1-3)]GlcNAc(b1-3)Gal(b1-4)GlcNAc
# Summary of the method: as §1
# [12] = target: Neu5Ac(a2-3)Gal(b1-4)[Fuc(a1-3)]GlcNAc(b1-3)Gal(b1-4)[Fuc(a1-3)]GlcNAc(b1-3)Gal(b1-4)[Fuc(a1-3)]GlcNAc
# Summary of the method: as §1
# [13] = target: Neu5Ac(a2-3)Gal(b1-4)[Fuc(a1-3)]GlcNAc6S
# Summary of the method: as §1
# [14] = target: Neu5Ac(a2-3)Gal6S(b1-4)GlcNAc
# Summary of the method: as §1
# Neu5Ac(a2-3)GalNAc = target: Neu5Ac(a2-3)GalNAc
# Summary of the method: as §1
# [15] = target: Neu5Ac(a2-3)[GalNAc(b1-4)]Gal(b1-4)Glc
# Summary of the method: as §1
# [16] = target: Neu5Ac(a2-3)[GalNAc(b1-4)]Gal(b1-4)GlcNAc
# Summary of the method: as §1
# [17] = target: Neu5Ac(a2-3)[Neu5Ac(a2-6)]GalNAc
# Summary of the method: as §1
# Neu5Ac(a2-6)Gal = target: Neu5Ac(a2-6)Gal
# Summary of the method: as §1
# Neu5Ac(a2-6)Gal(b1-4)Glc = target: Neu5Ac(a2-6)Gal(b1-4)Glc
# Summary of the method: as §1
# [18] = target: Neu5Ac(a2-6)Gal(b1-4)GlcNAc
# Summary of the method: as §1
# [19] = target: Neu5Ac(a2-6)Gal(b1-4)GlcNAc(b1-3)Gal(b1-4)GlcNAc
# Summary of the method: as §1
# [20] = target: Neu5Ac(a2-6)Gal(b1-4)GlcNAc(b1-3)Gal(b1-4)[Fuc(a1-3)]GlcNAc(b1-3)Gal(b1-4)[Fuc(a1-3)]GlcNAc
# Summary of the method: as §1
# [21] = target: Neu5Ac(a2-6)Gal(b1-4)GlcNAc6S
# Summary of the method: as §1
# Neu5Ac(a2-6)GalNAc = target: Neu5Ac(a2-6)GalNAc
# Summary of the method: as §1
# Neu5Ac(a2-8)Neu5Ac = target: Neu5Ac(a2-8)Neu5Ac
# Summary of the method: as §1
# [22] = target: Neu5Ac(a2-8)Neu5Ac(a2-3)Gal(b1-4)Glc
# Summary of the method: as §1
# [23] = target: Neu5Ac(a2-8)Neu5Ac(a2-3)[GalNAc(b1-4)]Gal(b1-4)Glc
# Summary of the method: as §1
# [24] = target: Neu5Ac(a2-8)Neu5Ac(a2-8)Neu5Ac
# Summary of the method: as §1
# [25] = target: Neu5Ac(a2-8)Neu5Ac(a2-8)Neu5Ac(a2-3)Gal(b1-4)Glc
# Summary of the method: as §1
# [26] = target: Neu5Ac(a2-8)Neu5Ac(a2-8)Neu5Ac(a2-3)[GalNAc(b1-4)]Gal(b1-4)Glc
# Summary of the method: as §1
# Neu5Ac(b1-6)GalNAc = target: Neu5Ac(b1-6)GalNAc
# Summary of the method: as §1
# [27] = target: Neu5Ac(b2-6)Gal(b1-4)GlcNAc
# Summary of the method: as §1
# [28] = target: Neu5Ac9Ac(a2-6)Gal(b1-4)GlcNAc
# Summary of the method: as §1
# [29] = target: Neu5Gc(a2-3)Gal(b1-3)GlcNAc
# Summary of the method: as §1
# [30] = target: Neu5Gc(a2-3)Gal(b1-3)[Fuc(a1-4)]GlcNAc
# Summary of the method: as §1
# Neu5Gc(a2-3)Gal(b1-4)Glc = target: Neu5Gc(a2-3)Gal(b1-4)Glc
# Summary of the method: as §1
# [31] = target: Neu5Gc(a2-3)Gal(b1-4)GlcNAc
# Summary of the method: as §1
# [32] = target: Neu5Gc(a2-3)Gal(b1-4)[Fuc(a1-3)]GlcNAc
# Summary of the method: as §1
# [33] = target: Neu5Gc(a2-6)Gal(b1-4)GlcNAc
# Summary of the method: as §1
# Neu5Gc(a2-6)GalNAc = target: Neu5Gc(a2-6)GalNAc
# Summary of the method: as §1
binder,measurement,setting,value
B1,glycan array binding signal (z-score),[1],-0.097
same,glycan array binding signal (z-score),[2],-0.096
same,glycan array binding signal (z-score),[3],-0.086
same,glycan array binding signal (z-score),[4],-0.076
same,glycan array binding signal (z-score),Neu5Ac(a2-3)Gal(b1-4)Glc,-0.094
same,glycan array binding signal (z-score),[5],-0.096
same,glycan array binding signal (z-score),[6],-0.096
same,glycan array binding signal (z-score),[7],0.002
same,glycan array binding signal (z-score),[8],-0.085
same,glycan array binding signal (z-score),[9],-0.054
same,glycan array binding signal (z-score),[10],-0.1
same,glycan array binding signal (z-score),[11],-0.048
same,glycan array binding signal (z-score),[12],-0.026
same,glycan array binding signal (z-score),[13],-0.056
same,glycan array binding signal (z-score),[14],-0.096
same,glycan array binding signal (z-score),Neu5Ac(a2-3)GalNAc,-0.08
same,glycan array binding signal (z-score),[15],-0.092
same,glycan array binding signal (z-score),[16],-0.057
same,glycan array binding signal (z-score),[17],-0.085
same,glycan array binding signal (z-score),Neu5Ac(a2-6)Gal,-0.102
same,glycan array binding signal (z-score),Neu5Ac(a2-6)Gal(b1-4)Glc,-0.09
same,glycan array binding signal (z-score),[18],-0.083
same,glycan array binding signal (z-score),[19],-0.095
same,glycan array binding signal (z-score),[20],-0.042
same,glycan array binding signal (z-score),[21],-0.07
same,glycan array binding signal (z-score),Neu5Ac(a2-6)GalNAc,-0.058
same,glycan array binding signal (z-score),Neu5Ac(a2-8)Neu5Ac,-0.095
same,glycan array binding signal (z-score),[22],-0.096
same,glycan array binding signal (z-score),[23],-0.042
same,glycan array binding signal (z-score),[24],-0.078
same,glycan array binding signal (z-score),[25],-0.055
same,glycan array binding signal (z-score),[26],-0.083
same,glycan array binding signal (z-score),Neu5Ac(b1-6)GalNAc,-0.099
same,glycan array binding signal (z-score),[27],-0.097
same,glycan array binding signal (z-score),[28],-0.089
same,glycan array binding signal (z-score),[29],-0.095
same,glycan array binding signal (z-score),[30],-0.011
same,glycan array binding signal (z-score),Neu5Gc(a2-3)Gal(b1-4)Glc,-0.092
same,glycan array binding signal (z-score),[31],-0.099
same,glycan array binding signal (z-score),[32],-0.075
same,glycan array binding signal (z-score),[33],-0.1
same,glycan array binding signal (z-score),Neu5Gc(a2-6)GalNAc,-0.098
